From the supplement of paper PMC4604168 (melanoma cell lines)
Some of the results follow. Single values are uncertain, as repeats are few or missing.

Legend:
Test in all cases: cell count relative to DMSO control; melanoma cells; higher = more viable cells
Settings in all cases: library dose: standard library concentration; 72 h
SkMel28 = test system: SkMel28
SkMel2 = test system: SkMel2
SkMel30 = test system: SkMel30
SkMel5 = test system: SkMel5
UACC257 = test system: UACC257
UACC62 = test system: UACC62
WM115 = test system: WM115
WM1716 = test system: WM1716
WM1745 = test system: WM1745
WM3526 = test system: WM3526
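Also: cells treated in 1,536-well plates, then fixed and DAPI-stained, with nuclei counted from automated high-throughput microscope images.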

| SMILES | cell count (SkMel28) [%] | cell count (SkMel2) [%] | cell count (SkMel30) [%] | cell count (SkMel5) [%] | cell count (UACC257) [%] | cell count (UACC62) [%] | cell count (WM115) [%] | cell count (WM1716) [%] | cell count (WM1745) [%] | cell count (WM3526) [%] |
| --- | --- | --- | --- | --- | --- | --- | --- | --- | --- | --- |
| CO[C@@H]1[C@H](N(C)C(=O)c2ccccc2)C[C@H]2O[C@]1(C)n1c3ccccc3c3c4c(c5c6ccccc6n2c5c31)C(=O)NC4 [Midostaurin] + COc1ccc(COc2ccc(Cc3cnc(N)nc3N)cc2OC)cc1 [GW2580] (first compound 0.4 µM, partner dose 5 µM) | 50.9 | 42.6 | 67.7 | 57.4 | 68.2 | 59.2 | 49.6 | 41.6 | 38.3 | 76.6 |
| NCC(=O)Nc1ccc(-n2nc(C(F)(F)F)cc2-c2ccc3c(ccc4ccccc43)c2)cc1 + CCN(CC)CCCCNc1ncc2cc(-c3cc(OC)cc(OC)c3)c(NC(=O)NC(C)(C)C)nc2n1 [PD173074] (first compound 5 µM, partner dose 0.5 µM) | 31 | 47.9 | 46.6 | 85.4 | 86.5 | 71.2 | 102 | 98.1 | 71.7 | 51.6 |
| NC(=O)Nc1cc(-c2cccc(F)c2)sc1C(=O)N[C@H]1CCCNC1 + CN(C)S(=O)(=O)c1ccc2c(c1)/C(=C/c1cc3c([nH]1)CCCC3)C(=O)N2 [SU6656] (first compound 0.1 µM, partner dose 2 µM) | 18 | 75.3 | 71.8 | 69 | 78.6 | 54.2 | 28.9 | 44.8 | 37.1 | 47.9 |
| OCCn1cc(-c2cnc3nnn(Cc4ccc5ncccc5c4)c3n2)cn1 + Cn1cc(/C=C2\C(=O)Nc3cccnc32)c2ccccc21 [GW441756] (first compound 5 µM, partner dose 2 µM) | 112 | 108 | 107 | 78.8 | 78 | 111 | 97.7 | 90.7 | 85.9 | 92.8 |
| C[C@]1(c2nc3c(C(N)=O)cccc3[nH]2)CCCN1 [Veliparib] + Cc1ccc(NC(=O)c2cccc(N(C)C)c2)cc1NC(=O)c1ccc(O)cc1 [ZM336372] (first compound 7 µM, partner dose 10 µM) | 73.9 | 84.1 | 77.5 | 76.2 | 79.3 | 83.3 | 82 | 95.2 | 73.7 | 88.3 |
| C[C@]1(c2nc3c(C(N)=O)cccc3[nH]2)CCCN1 [Veliparib] + OCCn1cc(-c2cnc3nnn(Cc4ccc5ncccc5c4)c3n2)cn1 [PF04217903] (first compound 7 µM, partner dose 5 µM) | 83.9 | 80.4 | 95.7 | 71 | 99.2 | 60.9 | 66.3 | 97.2 | 79.7 | 81.5 |
| Cc1nc(Nc2ncc(C(=O)Nc3c(C)cccc3Cl)s2)cc(N2CCN(CCO)CC2)n1 [dasatanib] + Oc1nc(-c2ccc(C(F)(F)F)cc2)nc2c1CSCC2 [XAV939] (first compound 0.02 µM, partner dose 10 µM) | 58.6 | 87.2 | 75.2 | 55.6 | 80.5 | 120 | 63 | 39.2 | 36.5 | 92.2 |
| CN(C)S(=O)(=O)c1ccc2c(c1)/C(=C/c1cc3c([nH]1)CCCC3)C(=O)N2 + c1cc(-c2cnn3cc(-c4ccc(OCCN5CCCCC5)cc4)cnc23)ccn1 [Dorsomorphin] (first compound 2 µM, partner dose 2 µM) | 54.4 | 65 | 80.5 | 51.9 | 74.2 | 56 | 35.3 | 45.5 | 37.1 | 73.8 |
| Cc1nc(Nc2ncc(C(=O)Nc3c(C)cccc3Cl)s2)cc(N2CCN(CCO)CC2)n1 [dasatanib] + CCN(CC)CCCCNc1ncc2cc(-c3cc(OC)cc(OC)c3)c(NC(=O)NC(C)(C)C)nc2n1 [PD173074] (first compound 0.02 µM, partner dose 0.5 µM) | 64.1 | 89.3 | 91.1 | 46.5 | 85.1 | 92.6 | 43.3 | 38.4 | 46.6 | 77.3 |
| OCCn1cc(-c2cnc3nnn(Cc4ccc5ncccc5c4)c3n2)cn1 + COc1ccc(COc2ccc(Cc3cnc(N)nc3N)cc2OC)cc1 [GW2580] (first compound 5 µM, partner dose 5 µM) | 97.6 | 88.1 | 85.5 | 83.8 | 76.3 | 109 | 111 | 102 | 106 | 80.2 |
| OCCn1cc(-c2cnc3nnn(Cc4ccc5ncccc5c4)c3n2)cn1 + CN(NC(=O)CC(=O)NN(C)C(=S)c1ccccc1)C(=S)c1ccccc1 [STA4783] (first compound 5 µM, partner dose 0.03 µM) | 29.8 | 71.8 | 94.5 | 52.4 | 93.7 | 56.7 | 26.3 | 77.7 | 49.9 | 70.4 |
| Cc1nc(Nc2ncc(C(=O)Nc3c(C)cccc3Cl)s2)cc(N2CCN(CCO)CC2)n1 [dasatanib] + O=c1cc(-c2cccc3c2Sc2ccccc2S3)oc(N2CCOCC2)c1 [KU55933] (first compound 0.02 µM, partner dose 5 µM) | 59.7 | 86.2 | 98.7 | 68.7 | 87.4 | 71.9 | 59 | 60.1 | 53.6 | 81.1 |
| NCC(=O)Nc1ccc(-n2nc(C(F)(F)F)cc2-c2ccc3c(ccc4ccccc43)c2)cc1 + CCCCCCCCCCCC1=C(O)C(=O)C=C(O)C1=O [Embelin] (first compound 5 µM, partner dose 6 µM) | 14.9 | 27.7 | 24.7 | 52.9 | 68.4 | 61.9 | 81.6 | 68.1 | 59.3 | 40 |
| OCCn1cc(-c2cnc3nnn(Cc4ccc5ncccc5c4)c3n2)cn1 + COc1ccc(-c2ccc3c(N4CCOCC4)nc(N4C[C@@H](C)O[C@@H](C)C4)nc3n2)cc1CO [KU0063794] (first compound 5 µM, partner dose 0.1 µM) | 80 | 84.3 | 96.9 | 78.1 | 89.9 | 104 | 111 | 96 | 78.3 | 86.1 |
| C[C@]1(c2nc3c(C(N)=O)cccc3[nH]2)CCCN1 [Veliparib] + CC(C)CCN1c2nc(Nc3cc(F)c(O)c(F)c3)ncc2N(C)C(=O)C1C [BID1870] (first compound 7 µM, partner dose 1 µM) | 44.9 | 68.2 | 72.8 | 66.9 | 79.5 | 87.5 | 84.3 | 78.4 | 75.8 | 66.7 |
| CO[C@@H]1[C@H](N(C)C(=O)c2ccccc2)C[C@H]2O[C@]1(C)n1c3ccccc3c3c4c(c5c6ccccc6n2c5c31)C(=O)NC4 [Midostaurin] + CN(C)S(=O)(=O)c1ccc2c(c1)/C(=C/c1cc3c([nH]1)CCCC3)C(=O)N2 [SU6656] (first compound 0.4 µM, partner dose 2 µM) | 38.8 | 32 | 71.2 | 29.8 | 38.4 | 55.1 | 40.9 | 36.6 | 29.9 | 48.7 |
| CN(C)S(=O)(=O)c1ccc2c(c1)/C(=C/c1cc3c([nH]1)CCCC3)C(=O)N2 + COc1ccc(-c2ccc3c(N4CCOCC4)nc(N4C[C@@H](C)O[C@@H](C)C4)nc3n2)cc1CO [KU0063794] (first compound 2 µM, partner dose 0.1 µM) | 60.4 | 77.2 | 81.4 | 57.1 | 77.1 | 95.1 | 46.5 | 78.7 | 53.1 | 77.1 |
| C=CCn1c(=O)c2cnc(Nc3ccc(N4CCN(C)CC4)cc3)nc2n1-c1cccc(C(C)(C)O)n1 + CN(C)S(=O)(=O)c1ccc2c(c1)/C(=C/c1cc3c([nH]1)CCCC3)C(=O)N2 [SU6656] (first compound 0.1 µM, partner dose 2 µM) | 58.2 | 97.4 | 76.8 | 60.6 | 106 | 86.4 | 52.8 | 72.5 | 43.4 | 76.9 |
| OCCn1cc(-c2cnc3nnn(Cc4ccc5ncccc5c4)c3n2)cn1 + Oc1cc(-c2nc(-c3ccccc3)[nH]c2-c2ccncc2)ccc1Cl [L779450] (first compound 5 µM, partner dose 1 µM) | 54.4 | 41.6 | 98.4 | 81.8 | 104 | 57.6 | 41.4 | 69.7 | 45.2 | 54.6 |
| OCCn1cc(-c2cnc3nnn(Cc4ccc5ncccc5c4)c3n2)cn1 + NCC(=O)Nc1ccc(-n2nc(C(F)(F)F)cc2-c2ccc3c(ccc4ccccc43)c2)cc1 [OSU03012] (first compound 5 µM, partner dose 5 µM) | 24.8 | 29.6 | 60.1 | 60.2 | 73 | 56.7 | 112 | 77.6 | 84.3 | 42.2 |
| C[C@]1(c2nc3c(C(N)=O)cccc3[nH]2)CCCN1 [Veliparib] + Oc1cc(-c2nc(-c3ccccc3)[nH]c2-c2ccncc2)ccc1Cl [L779450] (first compound 7 µM, partner dose 1 µM) | 33.8 | 43.2 | 78.2 | 66.2 | 96.9 | 63 | 52 | 76.4 | 81.1 | 50.1 |
| Cc1nc(Nc2ncc(C(=O)Nc3c(C)cccc3Cl)s2)cc(N2CCN(CCO)CC2)n1 [dasatanib] + O=S(=O)(c1ccccc1)N(CC(F)(F)F)c1ccc(C(O)(C(F)(F)F)C(F)(F)F)cc1 [T0901317] (first compound 0.02 µM, partner dose 7 µM) | 60.3 | 0.178 | 59.1 | 50.3 | 68 | 52.5 | 45.2 | 51.6 | 25 | 71.6 |
| CN(C)S(=O)(=O)c1ccc2c(c1)/C(=C/c1cc3c([nH]1)CCCC3)C(=O)N2 + O=C(Nc1ccccc1)c1cc([N+](=O)[O-])ccc1Cl [GW9662] (first compound 2 µM, partner dose 10 µM) | 32.9 | 59.6 | 80.3 | 67.4 | 70.3 | 48.5 | 44.5 | 53.9 | 40.7 | 72.2 |
